Drawing on article PMC12136788, this text covers binding signal for 14 molecules.

First the molecules themselves.
B1: chr3:31579932:31580050:+|CDS|ENSG00000163527|unk|total|mutant (ssRNA)
RNA: GGGAGUUCUACAGUCCGACGAUCUACAUCUAUAUCUACUUUCCUGCUUACAAGAGAACUUUGGAACCAAGGAGCAGGACUUUCCGCUGCUUGUUUUAUUGCUAUUGUACCAGGCUACAUAUCUCGGUCAGCCGCUGGAUCCUUCAACAGAGGAUUGAGCAUCA
B2: ENSG00000198589:be:win_3851|CDS|ENSG00000198589|bound_else_gene|NA|bound_elsewhere_windowed (ssRNA)
RNA: GGGAGUUCUACAGUCCGACGAUCGGCAAGGAAUAGCACCAGAUGCAGUUAAUGGACAAAGGAGGGAUUCCAGAUCUACUGUGUUUCGUAUUCCUGAGUUCAACUGGUCUCAGAUGCAUCAACGUUUGCUCACUGAUCUAUUAUCAACAGAGGAUUGAGCAUCA
B3: chrX:40074726:40074839:-|CDS|ENSG00000183337|unk|FALSE|unique (ssRNA)
RNA: GGGAGUUCUACAGUCCGACGAUCGCGCUGGGCUUGGACAGGCCUGCCAGCGACAAACAGAGCCCUCUCAACAUCAAUGGUGCUAGUUAUCUGCGGCUGCCCUGGGUCAAUCCUUACAUGGAGGGUGCCACGCCAGCCAUCUACCAACAGAGGAUUGAGCAUCA
B4: chr11:74333230:74333331:-|3pUTR|ENSG00000165434|msi1|total|mutant (ssRNA)
RNA: GGGAGUUCUACAGUCCGACGAUCUGAGUCUUUUAUUGAAGGGUUCAAAGUAAGAAAUACUAUGCCACCGUGUUCUCCAUCUCCCGUGAAGACAGAACCAGAGGGAAUAAGGAUCUUUUUUUUAAAGACAGCAUGGAAAGUUUACAACAGAGGAUUGAGCAUCA
B5: chr8:22006149:22006250:+|3pUTR|ENSG00000130227|msi1|total|mutant (ssRNA)
RNA: GGGAGUUCUACAGUCCGACGAUCGAAUGUAUGAACUGGAGGAAGUUACUACAGUGGAAGGGUUCUUAAUAACAAGGUCUACCCCGCAUGAAGUAUUUAACAUUCUCCCAUCCCUUAAAAAAUAUACAUUUUUAUAAAAUGAAACAACAGAGGAUUGAGCAUCA
B6: chr5:113594843:113594944:+|3pUTR|ENSG00000047188|msi1|FALSE|bound_elsewhere (ssRNA)
RNA: GGGAGUUCUACAGUCCGACGAUCCAACAUAAAAUCUUGAGAACCUUCUACUUUCUCUGGGAAAGCAUUAUAUAGUGGUGCAUUAGUUUAGAAAGUCAGCUAUGAUUUUGCCUAUAGUUCUAGUUAUUAGCUUUGGGGUUUUCUCAACAGAGGAUUGAGCAUCA
B7: ENSG00000034677:stop:overlap|stop_codon|ENSG00000034677|stop_codon|NA|stop_codon (ssRNA)
RNA: GGGAGUUCUACAGUCCGACGAUCCAAAUAACAACCACUCACAUCAGACAAUGGAAUUAAAAGUUGCAAUUCAGACUGAAAUUUAGGCCCAUAAAUGCUGCAGAAUAAUUACCACUGUACAACCGUGUUUGGAGCUGGUUGAACCAACAGAGGAUUGAGCAUCA
B8: chr8:23843870:23844003:-|3pUTR|ENSG00000159167|msi1|total|mutant (ssRNA)
RNA: GGGAGUUCUACAGUCCGACGAUCAAUUCCAGAGGACUCUGCUUAAACAAAGCAGUAUAUAAUAACUUUAUUGCAUACCGAUUCCGUUUUGUAACUCCGCUUUAUUUUUCUUUUCCUGGGAAUGGAAUAACUAUCUCACUUCCACAACAGAGGAUUGAGCAUCA
B9: chr15:34978960:34979061:-|3pUTR|ENSG00000198146|msi1|FALSE|unique (ssRNA)
RNA: GGGAGUUCUACAGUCCGACGAUCGCCCUCUGUAUCCAUGUACUCUGCAUCUGUGGAUUAAACCAAUUGCAGAUCAAAAAUAUUAGAAAAAAUAAAAAUAAUACAAAUAAAAAUACAGUAUAACAGUUAUUUAAAUAGCAUUUACAACAGAGGAUUGAGCAUCA
B10: chr2:96875881:96876275:-|three_prime_utr|ENSG00000168754|control|control|control (ssRNA)
RNA: GGGAGUUCUACAGUCCGACGAUCUCGCCCACCCCUCAGCCCUCCUCCCAGCCAUCUCCUCUUCCCUAAGGCCUCUGUCUCCAUAGCUCUGGUUUCCCUGGGCCUCAGUCCUCCCCACCCUCCUUCCUCUGUCUCCCUGUCACUCAACAGAGGAUUGAGCAUCA
B11: chr1:9850293:9850394:-|3pUTR|ENSG00000178585|unk|total|mutant (ssRNA)
RNA: GGGAGUUCUACAGUCCGACGAUCCGGUAUCUGGCUUCCCUGGAAGCUCUCCGAGCUCUGGUGCUUCCGUCCGGUCAUUUUUUCCGAAAUGUGAAGAGGUCUGAUUGGCUGCUUAAACUGGAAAGGAUCUGUGAUUGGCUGGUUCAACAGAGGAUUGAGCAUCA
B12: ENSG00000198589:be:win_851|CDS|ENSG00000198589|bound_else_gene|NA|bound_elsewhere_windowed (ssRNA)
RNA: GGGAGUUCUACAGUCCGACGAUCAAGGCUUUCAACACUGUGUGAAAUUUGAUUUCAAGCCACAAAAGUGGUAUAUGGUUACCAUAGUACACAUCUAUAACCGAUGGAAGAAUAGUGAACUUCGAUGUUAUGUGAAUGGUGAGCCAACAGAGGAUUGAGCAUCA
B13: chr8:41263332:41263433:-|3pUTR|ENSG00000104332|msi1|total|mutant (ssRNA)
RNA: GGGAGUUCUACAGUCCGACGAUCCAGCAUGCCCGCCCCGUUACCUACCGGAGAGUUAUCCUGAUAAAUUAACCUCUCACAGUCCGUGAUCCUGUCCUUUUAACACCUUUUUUGUGGGGUUCUCUCUGACCUUUCAUCGUAAAGCAACAGAGGAUUGAGCAUCA
B14: chr6:150018333:150018855:-|three_prime_utr|ENSG00000155918|control|control|control (ssRNA)
RNA: GGGAGUUCUACAGUCCGACGAUCACCACCUACGGUGUAUGUCCAGCAGCCUCCAGCAGAUGAUGAUGACACCAUGGACCCAAUAGCUCAUUCACUGCCUUGAUUCCUUUUGCCAACAAUUUAACCAGUGAUUAUUCCUAACAUCAACAGAGGAUUGAGCAUCA

The list shows a part of the results.

The assay has as its target MSI1 full-length (mouse, UniProt Q61474 1-362). As to the kind of experiment: nsRBNS (natural sequence RNA bind-n-seq); RBNS binding buffer (assumed for nsRBNS): 25 mM Tris pH 7.5, 150 mM KCl, 3 mM MgCl2, 0.01% Triton X-100, 500 ug/ml BSA, 20 U/ml SUPERase-In, 4 C; UNK is unkempt and MSI1 is Musashi-1; names of the RNAs are library labels; protein concentration not given here; high values mean tight binding.
UniProt Q61474, sequence (Q61474 whole entry): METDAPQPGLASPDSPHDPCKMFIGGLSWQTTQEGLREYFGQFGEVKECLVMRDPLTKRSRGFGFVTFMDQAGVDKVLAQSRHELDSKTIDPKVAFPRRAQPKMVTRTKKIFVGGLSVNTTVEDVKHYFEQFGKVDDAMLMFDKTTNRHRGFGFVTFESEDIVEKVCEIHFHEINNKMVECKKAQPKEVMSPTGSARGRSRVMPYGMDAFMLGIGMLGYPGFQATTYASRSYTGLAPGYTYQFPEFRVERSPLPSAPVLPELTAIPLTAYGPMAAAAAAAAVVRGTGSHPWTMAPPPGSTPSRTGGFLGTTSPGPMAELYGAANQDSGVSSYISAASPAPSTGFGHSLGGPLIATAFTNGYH
B1 showed a binding signal of 0.55 enrichment R. To B2 belongs 0.336 enrichment R; to B3, 0.462 enrichment R. To B4 belongs 0.233 enrichment R. To B5 belongs 0.38 enrichment R. B6 registered a binding signal of 31.3 enrichment R. The figure for B7 is 0.506 enrichment R; for B8 it is 0.46 enrichment R.

As to B9, the binding signal is 14.7 enrichment R.

Regarding B10, the binding signal amounted to 1.39 enrichment R. Regarding B11, the binding signal turned out to be 0.339 enrichment R.

Take B12: the binding signal worked out at 0.419 enrichment R.

The molecule B13 displayed a binding signal of 0.727 enrichment R. The figure for B14 is 0.42 enrichment R.
